Measured values taken from PubChem BioAssay AID624171 (National Center for Advancing Translational Sciences (NCATS), 2012).
Hit rate of the full screen: of about 410,000 compounds, about 1,200 (0.29%) were called active. This list was built around the results that the source calls inconclusive (neither active nor inactive); the mix of calls is not that of the screen. The call rests on the fitted dose curve; in most records, active means well fitted activation curve with a large enough effect; inconclusive means small, poorly fitted or top-dose-only effect; inactive means flat fitted curve, though single readings scatter. Potencies of inconclusive entries are doubtful fits and often do not repeat.

Test: qHTS of Nrf2 Activators; further: nearly all actives have a fitted effect of over 65% in size; on activation: % of control where 0% means no effect
Conditions: AREc32 ARE-luciferase reporter (MCF7-derived line), luminescence, 24 h; activation: at 46.1 µM (top of the series)
Procedure, shortened: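 ARE activation measured as luciferase luminescence (Steady-Glo, 30 min RT) in AREc32_Fluc cells after 24 hr compound exposure at 37 deg C, 5% CO2; cells seeded overnight at 1000/well in OPTI-MEM, 5% FBS.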
Potency means the concentration at half of the fitted maximal effect; tags describe the fitted curve by direction and shape.

Row | SMILES | Potency | activation
1 | COc1cc(OC)cc(-c2cc3ncccc3cn2)c1 | inconclusive: 12.6 µM [activator, partial curve, poor fit] | –
2 | Cn1nnnc1Sc1ncnc2scc(-c3ccsc3)c12 | inconclusive: 2.82 µM [activator, partial curve, poor fit] | –
3 | O=[N+]([O-])c1cccc(-c2nc(-c3ccccn3)no2)c1 | inconclusive: 2.51 µM [activator, full curve, poor fit] | –
4 | c1ccc(CSc2nnc(-c3ccco3)c(-c3ccco3)n2)cc1 | active: 12.6 µM | –
5 | Cc1cc(NC(=O)CSc2ccc(-c3cccc([N+](=O)[O-])c3)nn2)no1 | inconclusive: 11.2 µM [activator, single point] | –
6 | Clc1nc(NCc2ccco2)nc(N2CCCCC2)n1 | inconclusive: 2.51 µM [activator, full curve] | –
7 | O=C(N/N=C/c1ccc(Sc2nc3ccccc3s2)c([N+](=O)[O-])c1)c1ccccn1 | inconclusive: 25.1 µM [activator, single point] | –
8 | Cc1ccc(-c2noc(-c3ccccc3Br)n2)cc1 | inconclusive: 2.82 µM [activator, full curve, poor fit] | –
9 | CC(=O)Nc1ccc2c(c1)C(=Nc1ccccc1)c1ccccc1-2 | active: 11.2 µM | –
10 | COc1ccc(C(C(=O)Nc2ccc(C(C)C)cc2)N(C)C(=O)Cc2cccs2)cc1 (configuration not stated) | inactive | –
11 | CN1C2=CC=CC=CC2=[N+](C)C12C([N+](=O)[O-])=CC(=[N+]([O-])[O-])C=C2[N+](=O)[O-] (configuration not stated) | inconclusive: 17.8 µM [activator, partial curve, poor fit] | –
12 | Fc1ccc(-c2nc(-c3cccs3)no2)cc1 | inconclusive: 15.8 µM [activator, single point] | –
13 | Oc1ccc(Nc2nc(-c3ccc(O)cc3)cs2)cc1 | inconclusive: 15.8 µM [activator, single point] | –
14 | COc1cccc(C(c2sc3nc(-c4ccco4)nn3c2O)N2CCCC2)c1 (configuration not stated) | inconclusive: 12.6 µM [activator, partial curve, poor fit] | –
15 | CCOc1ccc(/C=N/NC(=S)Nc2c(C)cccc2C)cc1 | inactive | –
16 | CCCCC1S/C(=N/N=C/c2cccs2)NC1=O (configuration not stated) | – | inactive: 2.71% [at 9.22 µM]
17 | O=C1CCCC(O)=C1C(C#Cc1ccccc1)C1=C(O)CCCC1=O | inconclusive: 35.5 µM [activator, single point] | –
18 | Cc1ccc(SC(=O)c2c(C)noc2-c2cc(C)on2)cc1 | inconclusive: 31.6 µM [activator, single point] | –
19 | O=C(c1cc2nc(-c3ccco3)cc(C(F)(F)F)n2n1)N1CCc2ccccc2C1 | inconclusive: 17.8 µM [activator, partial curve, poor fit] | –
20 | COc1cccc(CNC(=O)C2CCC(=O)N(C3CC3)C2)c1OC (configuration not stated) | inactive | –
21 | O=C(/C=C/c1ccc(Cl)cc1Cl)Nc1ccncc1 | inconclusive: 22.4 µM [activator, single point] | –
22 | O=C(Nc1ccc(Cl)c(Cl)c1)C1CCCCC1 | inactive | –
23 | COc1ccccc1NC(=O)CSc1nnnn1-c1ccc2c(c1)OCO2 | inactive | –
24 | COc1ccc([N+](=O)[O-])cc1NC(=O)c1ccc(Br)s1 | inconclusive: 8.91 µM [activator, partial curve] | –

Row | SMILES | Potency | activation
25 | Oc1ccc2ccccc2c1CNc1ccc(Br)cn1 | inconclusive: 15.8 µM [activator, single point] | –
26 | Cc1cc2nc(CCN3CCOCC3)n(S(=O)(=O)c3ccc(C(C)(C)C)cc3)c2cc1C | inactive | –
27 | O=C1c2ccccc2C(=O)C1c1ccccn1 | inconclusive: 17.8 µM [activator, single point] | –
28 | Cc1nc(NCc2ccco2)c2c(C)c(C)sc2n1 | inactive | –
29 | CCc1ccccc1NC(=O)CSc1nnc([C@@H]2CCCN2C(=O)OC(C)(C)C)o1 | inconclusive: 31.6 µM [activator, single point] | –
30 | CCc1cc(C(=O)COc2ccc(F)cc2)c(O)cc1O | inconclusive: 15.8 µM [activator, single point] | –
31 | O=C(NC(=S)Nc1cccc([N+](=O)[O-])c1)c1ccccc1 | inconclusive: 12.6 µM [activator, partial curve, poor fit] | –
32 | CC(C)(C)c1ccc(Oc2ncccc2NC(=O)c2cccs2)cc1 | inconclusive: 11.2 µM [activator, partial curve] | –
33 | COc1ccc(Cc2c(-c3cccc(Cl)c3)nc3ccc(Cl)cn23)c(C)c1 | inconclusive: 22.4 µM [activator, single point] | –
34 | CN(C)CCCN(C(=O)/C=C/c1cccs1)c1nc2c(F)cccc2s1 | inconclusive: 25.1 µM [activator, single point] | –
35 | CCN(CC)CCn1c(SCC(=O)NCc2ccccc2)nc2c(sc3ccccc32)c1=O | inactive | –
36 | Cn1cnc([N+](=O)[O-])c1S(=O)(=O)Nc1ccccc1 | inconclusive: 17.8 µM [activator, single point] | –
37 | O=C(C#Cc1ccccc1)NCc1ccccc1F | inconclusive: 20 µM [activator, single point] | –
38 | CCOc1ccccc1-c1nnc(SCc2ccc(Cl)cc2)o1 | inconclusive: 10 µM [activator, partial curve] | –
39 | Cc1ccc(-c2c[n+](Cc3cccc(Cl)c3)c3n2CCC3)cc1 | inactive | –
40 | O=C1NC(=Nc2ccccc2)S/C1=C\c1ccccc1 | inconclusive: 10 µM [activator, partial curve] | –
41 | Cc1cccc(-c2nnc(-c3ccccc3)o2)c1 | active: 11.2 µM | –
42 | CCC(=O)N(CCc1ccccc1)Cc1cc2cc3c(cc2[nH]c1=O)OCO3 | inactive | –
43 | Clc1ccccc1C1=CC(c2ccco2)n2ncnc2N1 (configuration not stated) | active: 11.2 µM | –
44 | COc1ccc(NC(=O)CN(C)C(=O)CCCN2C(=O)c3cccc4cccc(c34)C2=O)cc1 | inactive | –
45 | O=C1C2C(C(=O)N1/N=C/c1cccc([N+](=O)[O-])c1)C1C=CC2C12CC2 (configuration not stated) | inconclusive: 11.2 µM [activator, partial curve, poor fit] | –
46 | O=C(Nc1ccccn1)c1ccc(Cl)c(S(=O)(=O)N2CCOCC2)c1 | inconclusive: 15.8 µM [activator, single point] | –
47 | CC1CC(C)CN(C(=O)COC(=O)c2cncc(Br)c2)C1 (configuration not stated) | inactive | –
48 | CC(/C=C/C(=O)c1ccc(C)cc1)=C\c1ccccc1 | active: 11.2 µM | –

Row | SMILES | Potency | activation
49 | O=C(Nc1cccc(Cl)c1)Nc1ccccc1C(=O)NCc1ccco1 | inconclusive: 12.6 µM [activator, partial curve, poor fit] | –
50 | N#C/C(N=Nc1ccccc1O)=N\Nc1ccccc1O | inconclusive: 5.62 µM [activator, single point] | –
51 | CCOC(=O)c1cc(-c2cccnc2)nn1-c1ccccc1 | inactive | –
52 | NC(=S)NN=C1C=CCCC1 | inactive | –
53 | O=C(O)c1ccc(CN2C(=O)CSC2=S)cc1 | inconclusive: 14.1 µM [activator, single point] | –
54 | COc1cccc(CNc2nc3cc(-c4cccc(C(F)(F)F)c4)sc3c(=O)n2C)c1OC | inconclusive: 10 µM [activator, partial curve, poor fit] | –
55 | COc1ccc(OC)c(/C=C2\SC(=S)N(Cc3cccnc3)C2=O)c1 | inconclusive: 3.16 µM [activator, full curve, poor fit] | –
56 | CCn1c(/C=C/c2cc(Br)ccc2O)nc2ccccc2c1=O | inconclusive: 11.2 µM [activator, partial curve] | –
57 | COCCc1nn2c(=O)cc(COC(=O)c3ccc4c(c3)OCO4)nc2s1 | inactive | –
58 | N#CCc1ccc(NC(=O)/C=C/c2ccc([N+](=O)[O-])o2)cc1 | inconclusive: 0.891 µM [activator, full curve, poor fit] | –
59 | O=C1Nc2cccnc2N(C(=O)CCl)c2ccccc21 | inconclusive: 8.91 µM [activator, partial curve] | –
60 | O=c1c(C(c2ccc(F)cc2)c2c(O)nc3n(c2=O)CCS3)c(O)nc2n1CCS2 | inactive | –
61 | CCN(C(=O)COC(=O)c1ccc([N+](=O)[O-])o1)C1CCCCC1 | inconclusive: 22.4 µM [activator, single point] | –
62 | O=C(/C=C/c1c(Cl)cccc1Cl)NCc1ccco1 | inconclusive: 12.6 µM [activator, single point] | –
63 | O=[N+]([O-])c1ccccc1-c1ccc(/C=N/n2cnnc2)o1 | inconclusive: 11.2 µM [activator, partial curve, poor fit] | –
64 | N#C/C(=C\c1ccncc1)c1nc2ccccc2o1 | inconclusive: 22.4 µM [activator, single point] | –
65 | COC(=O)c1c(C)oc2ccc(N(C(=O)c3ccncc3)S(=O)(=O)c3ccc(C)cc3C)cc12 | inactive | –
66 | O=c1oc2cc(Cl)ccc2n1CSc1nc2ccccc2s1 | inconclusive: 15.8 µM [activator, single point] | –
67 | COCCn1c(C)cc(C(=O)CSc2cc(C)c3ccccc3n2)c1C | inactive | –
68 | C/C(=N\NC(=S)NCC(C)(C)C)c1cc(F)cc(F)c1O | active: 10 µM | –
69 | CCOc1ccc(N2CC(c3nc4ccccc4n3Cc3cccc(Cl)c3)CC2=O)cc1 (configuration not stated) | inactive | –
70 | Cc1cc(NS(=O)(=O)c2ccc(NC(=O)c3c(F)c(F)c(F)c(F)c3F)cc2)nc(C)n1 | inconclusive: 35.5 µM [activator, single point] | –
71 | Cn1cc([N+](=O)[O-])c(C(=O)Nc2ccc3nc(-c4ccccc4)[nH]c3c2)n1 | active: 25.1 µM | –
72 | COc1ccc(C2=CC(=O)N(Nc3ccccc3)C2=O)cc1 | inconclusive: 35.5 µM [activator, single point] | –
